Experimental data from PubChem BioAssay AID602293 (National Center for Advancing Translational Sciences (NCATS), 2012).
In all, about 1,300 compounds went through this assay and about 30 (2%) were called active. Roughly 10% stayed inconclusive and do not appear here. The call rests on the fitted dose curve; in most records, active means well fitted inhibition curve with a large enough effect; inconclusive means small, poorly fitted or top-dose-only effect; inactive means flat fitted curve, though single readings scatter. This is one part of the list.

Assay: qHTS for antagonists of the Thyroid Stimulation Hormone Receptor: Hit Validation in HTRF Activity in a Luteinizing Hormone Receptor Cell Line
Details: LHR-expressing cell line, cAMP HTRF, antagonist mode; series mostly up to 58 µM; activity change, negative = inhibition: at the top concentration
Excerpt: The thyroid-stimulating hormone receptor (TSHR) is a member of the 7 trans-membrane-spanning receptor (7TMR) family of cell surface receptors. TSHR-mediated hyperthyroidism is important in thyroid pathology. The development of small molecule antagonists of TSHR may lead to therapeutic approaches for TSHR-mediated hyperthyroidism caused by constitutively activating mutations or stimulating auto-antibodies associated with Graves' disease. Graves' disease is the leading cause of hyperthyroidism and is caused by autoantibodies that stimulate TSHR (TsAbs) causing thyroid growth and unregulated overproduction of thyroid hormones and existing treatments have liabilities (agranulocytosis). In addition, TSHRs are known to be expressed in multiple extrathyroidal tissues including bone, brain, kidney, testis, fat and cells of the immune system but the role of the TSHR in these tissues is not clear. Therefore, TSHR antagonists/inverse agonists could be used as probes of extrathyroidal TSHR function. Finally, TSHR inverse agonists, which are a subclass of antagonists that inhibit agonist-independent (or basal or constitutive) TSHR signaling, could be used to inhibit TSH-independent signaling in patients with recurrent or metastatic thyroid cancer who are receiving thyroid hormone to suppress TSH.
In collaboration between scientist from the NCGC and the NIDDK, a miniaturized HTRF high-throughput screen was developed. It's a cell based assay, where an anti cAMP antibody contains a fluorescent cryptate tag (excitation 337 nm; emission 620 nm) and the acceptor is cAMP-d2 (excitation 620 nm; emission 665 nm). When antibody and cAMP-d2 interact and are excited by a 337 nm light, a FRET occurs resulting in emission at 665 nm. The assay is competition between cAMP-d2 and cAMP (from the cell lysate). The homogeneous protocol allows for one step dispense after stimulation that is automation friendly. In order to confirm specificity of the compounds to the TSHR, a confirmatory assay was conducted on a similar family member, the Luteinizing Hormone (LH) receptor, transfected into a HEK 293 cell line, using an orthogonal detection technology to measure cAMP stimulation: antibody-based Homogeneous Time Resolved Fluorescence (HTRF).
NIH Chemical Genomics Center [NCGC]
NIH Molecular Libraries Probe Centers Network [MLPCN]
Assay Provider: Marvin Gershengorn, NIDDK
Homogeneous Time Resolved Fluorescence (HTRF) cAMP Assay. HEK 293 cells stably transfected with a vector containing the LH receptor and maintained under hygromycin selection were obtained from the laboratory of Dr. Marvin Gershengorn. Compounds were assayed using a HTRF cAMP detection kit (Cisbio) on the LH receptor transfected cell line. Briefly, 750 cells were plated in 2.5 ul/well of complete media (DMEM containing 10 % FCS, and 100 uM RO 20-1724) in 1536 well solid bottom white plates and 23 nl/well compound in DMSO solution or controls was added. Following 30 minute incubation at room temperature, 2.5 ul/well of labeled d2 cAMP and 2.5 ul/well of anti-cAMP antibody (both diluted 1:20 in lysis buffer) were added to each well using a flying reagent dispenser (Aurora Discovery, San Diego) . Plates were measured using the Envision plate reader (PerkinElmer, Boston, MA) with excitation at 330 nm and emissions of 615 nm and 660 nm.
On the % scale 0 is the no-effect control and ±100 the full control effect; potency means the concentration at half of the fitted maximal effect.

| SMILES | activity change, negative = inhibition | Potency |
| --- | --- | --- |
| Nc1ccc(C2(c3ccc(N)cc3)c3ccccc3-c3ccccc32)cc1 | inactive: 0.701% |  |
| C[C@]12CC[C@H]3[C@@H](CC[C@]4(O)C[C@@H](O)CC[C@]34C=O)[C@@]1(O)CC[C@@H]2C1=CC(=O)OC1 | inactive: -4.53% |  |
| COC(=O)C1=C(c2ccc(OC(F)(F)F)cc2)C[C@@H]2CC[C@H]1N2C(=O)N1CCC(C)CC1 | inactive: -4.89% |  |
| CN(C)CC1Oc2ccccc2OC1(O)c1ccccc1 (stereo not drawn) | inactive: -2.31% |  |
| COc1ccc(-[n+]2c(-c3ccccc3)cc(-c3ccc(C)cc3)cc2-c2ccccc2)cc1 | inactive: -4.98% |  |
| CCN(CC)S(=O)(=O)c1ccc(NN=C(C#N)C#N)cc1 | inactive: -2.68% |  |
| Cc1ccc(-n2c(C)nc3ccccc3c2=O)c(C)c1 | inactive: 2.57% |  |
| Oc1ccc(-[n+]2c(-c3ccccc3)cc(-c3ccccc3)cc2-c2ccccc2)cc1 |  | active: 39.8 µM |
| COC(=O)C1=C(c2ccc(-c3ccccc3)c(F)c2)C[C@@H]2CC[C@H]1N2C(=O)NCc1ccc(F)cc1 | inactive: -3.03% |  |
| C[C@]12CC[C@H](O)C[C@H]1CC[C@@H]1C2CC[C@]2(C)[C@@H](C3=CC(=O)OC3)[C@@H](O)C[C@]12O (stereo partly drawn) | inactive: -4.73% |  |
| COC(=O)C1=C(c2ccc(-c3ccccc3)c(F)c2)C[C@@H]2CC[C@H]1N2C(=O)NCCc1ccccc1 | inactive: -8.33% |  |
| CC12CCC3C(CC=C4CC5(CCC43C)OCCO5)C1CCC2=O (stereo not drawn) | inactive: 1.05% |  |
| COC(=O)C1=C(c2ccc(OCc3ccccc3)cc2)C[C@@H]2CC[C@H]1N2C(=O)NCc1cccc(OC)c1 | inactive: -0.797% |  |
| Cc1nc2ccccc2c(=O)n1-c1cccc(C(F)(F)F)c1 | inactive: 1.61% |  |
| CNc1ccc2oc(C[C@H]3O[C@@]4(CC[C@H]3C)O[C@H]([C@H](C)C(=O)c3ccc[nH]3)[C@H](C)C[C@H]4C)nc2c1C(=O)O |  | inactive |
| COC(=O)C1=C(c2ccc(-c3ccccc3)c(F)c2)C[C@@H]2CC[C@H]1N2C(=O)N1CCOCC1 | inactive: -5.52% |  |
| COC(=O)C1=C(c2ccc(-c3ccccc3)c(F)c2)C[C@@H]2CC[C@H]1N2C(=O)NCCCOC(C)C | inactive: -2.75% |  |

| SMILES | activity change, negative = inhibition | Potency |
| --- | --- | --- |
| C[C@H]1O[C@@H](OC2CC[C@]3(C=O)[C@H]4CC[C@]5(C)[C@@H](C6=CC(=O)OC6)CC[C@]5(O)[C@@H]4CC[C@]3(O)C2)CC2OC(C)(C)OC21 (stereo partly drawn) | inactive: -0.216% |  |
| COC(=O)C1=C(c2ccc(-c3ccccc3)c(F)c2)C[C@@H]2CC[C@H]1N2C(=O)NCC1CC1 | inactive: -6.08% |  |
| O=C(C1CCN(c2nc3ccc(Br)cc3s2)CC1)N1CCC2(CC1)OCCO2 | inactive: -2.84% |  |
| CCCCN=C[C@]12CCC(O)CC1(O)CCC1[C@@H]2CC[C@]2(C)[C@H](C3C=CC(=O)O3)CCC12O (stereo partly drawn) | inactive: -2.56% |  |
| O=C(Nc1ccc2ccccc2c1)c1nn(C23CC4CC(CC(C4)C2)C3)cc1Br | inactive: -1.5% |  |
| Cc1ccc(-c2cc(-c3ccccc3)cc(-c3ccccc3)[n+]2-c2ccccc2)cc1 |  | active: 42.6 µM |
| COc1cc(N2C(=O)CC(=O)NC2=O)cc(OC)c1OC | inactive: 1.86% |  |
| N#CC(C#N)=NNc1ccc(-n2ccc(C(F)(F)F)n2)cc1 | inactive: -4.9% |  |
| COc1cc(C(C)=O)ccc1OC(=O)N(C)c1ccccc1 | inactive: 3.33% |  |
| Cc1ccccc1-c1nc(CS(=O)CC(=O)N2CCC3(CC2)OCCO3)c(C)o1 (stereo not drawn) | inactive: 0.537% |  |
| COC(=O)C1=C(c2ccc(-c3ccccc3)c(F)c2)C[C@@H]2CC[C@H]1N2C(=O)NC(C)C | inactive: -0.923% |  |
| COC(=O)C1=C(c2ccc(-c3ccccc3)c(F)c2)C[C@@H]2CC[C@H]1N2C(=O)NCc1ccco1 | inactive: -4.99% |  |
| C[C@]12CC[C@H](O)C[C@H]1CC[C@@H]1[C@@H]2CC[C@]2(C)[C@@H](C3=CC(=O)OC3)CC[C@]12O | inactive: -5.83% |  |
| C[C@]12CCC3C(CCC4=CC(O)CC[C@@]43/C=N/O)C1(O)CCC2C1=CC(=O)OC1 (stereo partly drawn) | inactive: -3.96% |  |
| COc1cc2c(cc1/C=C/[N+](=O)[O-])OCO2 | inactive: -4.92% |  |
| CC(=O)c1ccc2c(c1)C1C(Cl)C(Sc3ccccc3[N+](=O)[O-])CC1C(C(=O)O)N2 (stereo not drawn) | inactive: -4.58% |  |
